Measurements from PubChem BioAssay (NCI).
Values joined by “and” are separate entries in the source; they are usually repeats but may differ in a detail not shown here. Identical values can stand only once.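 The compound was tested at five concentrations on cells cultured in 96-well plates, with a 48-hour exposure period. At the GI50, growth is halved. The concentration for full growth arrest is given as TGI.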

These compounds were tested on NCI-H322M lung (assay: NCI-60 cell line screen, 48 h).
O=C(O)CC[P+](c1ccccc1)(c1ccccc1)c1ccccc1 showed a TGI of over 100 µM. For COC(=O)C1=C(CS(=O)c2ccc([N+](=O)[O-])cc2[N+](=O)[O-])C2C=CC1C2 (stereo not given), the TGI was over 100 µM. In the case of CCn1c(-c2cc3c([nH]c4ccccc43)c(-c3cccc(O)c3)n2)n[nH]c1=S, the GI50 is reported as 8.58 µM and the TGI is reported as 24.3 µM. With COC(=O)c1cc2c(cc1Cl)SC1=NN(C)S(=O)N1S2(=O)=O (stereo not given) the GI50 was over 100 µM and the TGI was over 100 µM. Compound Oc1c(Cl)cc(Cl)c2ccc(Cn3cc(-c4cc(C(F)(F)F)cc(C(F)(F)F)c4)nn3)nc12 has a GI50 of 13.8 µM and a TGI of 26.8 µM. Cl/C(N=Nc1ccccc1)=N/Nc1ccccc1 was tested, and the TGI was over 100 µM. Work on Cc1ccc(-n2cc(-c3ccc(Cl)cc3)c3c(NN)ncnc32)cc1 yielded a TGI of 14.3 µM. C[S+](C)CC1OC(n2cnc3c(N)ncnc32)C(O)C1O (stereo not given) showed a TGI of over 225 µM. COC(=O)C(=O)C(C(=O)C(=O)Nc1cccc([N+](=O)[O-])c1)c1nc2ccc(Cl)cc2[nH]c1=O (stereo not given) was tested, and the TGI was over 100 µM. For CCOC(=O)CN(Cn1cncn1)Cn1cncn1, the TGI was over 100 µM. For CCC(COC(=O)CC[C@@H](NC(=O)C(C)NC(=O)C(C)OC1C(O)C(CO)OC(OCc2ccccc2)C1NC(C)=O)C(N)=O)NC1c2ccccc2Nc2cccc([N+](=O)[O-])c21 (stereo not given in full), the TGI was over 100 µM. Work on CC(C)(C)C(=O)OCC1OC(N=[N+]=[N-])C(OC(=O)C(C)(C)C)C(OC(=O)C(C)(C)C)C1OC(=O)C(C)(C)C (stereo not given) yielded a TGI of over 100 µM. O=C1OC(c2ccccc2)=N/C1=C\c1ccc(Oc2ccc(Cl)c(Cl)c2)cc1 showed a TGI of over 100 µM. Cc1cccc2c1c1ccc3c(c1n2C)C(=O)C=CC3=O was tested, and the TGI was 30.9 µM. Work on CN(C)CCNC(=O)c1ccc(-c2nc3ccc4[nH]ncc4c3c3c2C2CCC3C2)cc1 (stereo not given) yielded a GI50 of 1.76 µM and a TGI of 7.92 µM. CC1=C2C(=CC(C)(C)[C@@H]2O)C(=O)[C@](C)(O)C12CC2 was tested, and the TGI was 0.324 µM and 0.527 µM. Work on CCN1CCN(Cc2ccc(NC(=O)Nc3nc4ccc(Oc5ccnc(C(=O)NC)c5)cc4s3)cc2C(F)(F)F)CC1 yielded a GI50 of 2.24 µM and a TGI of 5.9 µM. CCN(CC)CCCNC(=O)c1cc2cc(NC(=O)c3cc4cc([N+](=O)[O-])ccc4[nH]3)ccc2[nH]1 gave a TGI of over 100 µM. COc1cccc(/C(Cl)=C(\C=O)c2cccc(OC)c2)c1 was tested, and the TGI was 28 µM. O=[N+]([O-])c1ccc2oc(=Nc3ccccc3)c(Nc3ccccc3)nc2c1 showed a TGI of over 100 µM. Compound O=[N+]([O-])c1cccc(-c2nc(-c3ccccc3)c(-c3ccccc3)[nH]2)c1 has a TGI of over 100 µM. In the case of O=c1c2cc(-c3ccccc3)sc2ncn1Cc1ccc(Cl)c(Cl)c1, the GI50 is reported as 0.0947 µM and the TGI is reported as 31.8 µM. COc1ccc2nc3c(c(NCCCN(C)C)c2c1)CCCC3 was tested, and the TGI was 46.8 µM. Compound O=C(Nc1ccc(-n2ccc3c(NC(=O)c4ccccc4)ncnc32)cc1)c1cccc(C(F)(F)F)c1 has a GI50 of 10.6 µM and a TGI of 36.2 µM. Cc1nnc2n(c1=O)CCN2C showed a TGI of over 100 µM. For Cn1c(=O)c2[nH]c(SCCN3CCOCC3)nc2n(C)c1=S, the TGI was over 100 µM. Cc1c2c(cc3c1C(=O)C(=O)C1=C3OC[C@@H]1C)C(C)(C)CCC2 showed a TGI of 27.7 µM. In the case of CN(C)c1nc(=NCc2ccco2)ss1, the TGI is reported as over 92.1 µM. Work on CCN(Cc1cc(F)ccc1F)c1ccc(CO)c(Cl)c1 yielded a GI50 of 6.51 µM and a TGI of 21.8 µM. Work on CCCCCCCCOC(=O)c1c(C)[nH]c(/C=C2\N=C(c3ccc[nH]3)C=C2OC)c1C yielded a GI50 of 0.221 µM and a TGI of 14 µM. With C[Si](C)(C)C(CCCCSc1ccccc1)(Sc1ccccc1)Sc1ccccc1 the TGI was over 100 µM. O=Nn1c2ccccc2c2cc([N+](=O)[O-])ccc21 gave a TGI of 41.6 µM. Work on NC(=O)c1cc(N(CCO)CCO)c([N+](=O)[O-])cc1[N+](=O)[O-] yielded a TGI of over 100 µM. Work on Cc1cccc2nc3c(=O)[nH]c(=O)nc-3n(C)c12 yielded a TGI of over 100 µM. For CSc1ncc(Br)c(Sc2nc(N)nc3nc[nH]c23)n1, the GI50 was 10.4 µM and the TGI was 66.6 µM. O=c1c2ccccc2nc(-c2ccccc2)n1NC(=S)Nc1ccc(Cl)cc1 gave a TGI of over 100 µM. C=C1CC2CC[C@@]34CC5O[C@@H]6C(O[C@H]7CC[C@H](CC(=O)OC8C(C)C9OC%10C[C@]%11(C[C@@H]%12O[C@]%13(CC(C)[C@@H]%14O[C@H](C(O)CC(O)CO)C[C@@H]%14O%13)CC(C)[C@@H]%12O%11)OC%10CC9O[C@H]8C[C@H]8OC(CC[C@@H]1O2)C[C@@H](C)C8=C)OC7[C@@H]6O3)[C@H]5O4 (stereo not given in full) showed a TGI of 1.49 µM. Work on CCCCCCCCCC(=O)N[C@@H](c1ccco1)[C@@H](O)C(=O)O[C@H]1C[C@@]2(O)[C@@H](OC(=O)c3ccccc3)[C@@H]3[C@]4(OC(C)=O)CO[C@@H]4C[C@H](O)[C@@]3(C)C(=O)[C@H](OC(C)=O)C(=C1C)C2(C)C yielded a TGI of over 50 µM. O=c1nc(-c2ccccc2)cc(CC(O)c2ccc(Cl)c(Cl)c2)[nH]1 (stereo not given) was tested, and the TGI was over 100 µM. O=C1CC(C(OCc2ccccc2)C(OCc2ccccc2)C(COCc2ccccc2)OCc2ccccc2)CC(=O)N1 (stereo not given) showed a TGI of over 100 µM. CS[C@]12[C@@H]3C(=O)N(C)C(=O)[C@@H]3[C@](C)(C(=O)N1C)C(=O)N2c1ccccc1 gave a TGI of over 100 µM. Compound CCN1CCN(c2cc(C)nc(N(CCCNc3ccnc4cc(Cl)ccc34)Cc3ccc4c(c3)OCO4)n2)CC1 has a GI50 of 3.57 µM and a TGI of 37.9 µM. CC1(c2cc3c(cc2Br)OCO3)SCCCS1 showed a TGI of over 100 µM. Compound Cc1cc(C)nc(/C(=N\NC(N)=O)C(=O)Nc2nc3ccc(C)cc3s2)c1 has a TGI of over 100 µM. CC(=O)OC1C2CCC3C(C)(O)C4CC(O)C(C)(C)C4(O)C(O)CC13CC2(C)O (stereo not given) gave a TGI of over 100 µM. For Cc1nc2n(c1/C=C1/C(=O)Nc3ccccc31)CCS2, the TGI was over 100 µM. COc1cc2ncnc(-n3ncc4cc(NC(=O)Nc5ccc(Cl)c(Cl)c5)ccc43)c2cc1OC was tested, and the GI50 was 2.23 µM and the TGI was 5.47 µM. Compound CC12CCCCC1=[N+]([O-])C(C)(C)N2O (stereo not given) has a TGI of over 100 µM. With NCCCCC1NC(=O)C(CC(=O)O)NC(=O)CNC(=O)C(CCCN=C(N)N)NC(=O)C(N)CSSCC(C(=O)O)NC(=O)C(CC(=O)O)NC(=O)C2CCCN2C(=O)CNC1=O (stereo not given) the GI50 was over 100 µM and the TGI was over 100 µM. COC(=O)NNC(c1ccc(Cl)cc1)c1ccc(Cl)cc1 gave a TGI of 36 µM. In the case of Cc1ccc(-c2cc(O)c3nc4ccccc4n3c2)cc1, the TGI is reported as over 100 µM. O=C1CC(C(CC(=O)c2ccccc2)c2ccccc2)C(=O)c2ccccc2N1 (stereo not given) gave a TGI of over 100 µM. CCOC(=O)C(C)Sc1nnc(COc2ccccc2OC)n1-c1ccccc1 (stereo not given) gave a TGI of over 100 µM. Compound C=C[C@@]1(O)CCCC[C@@H]1CC(Sc1ccccc1)Sc1ccccc1 has a TGI of 32 µM. Compound Nc1ccc(Nc2cc(=O)[nH]c(=O)[nH]2)cc1 has a TGI of over 100 µM. With CN(C)c1ccc(/C=C2\N=C(c3ccccc3)N(c3cc(C(F)(F)F)ccc3Cl)C2=O)cc1 the GI50 was over 100 µM and the TGI was over 100 µM. Compound CC(C)OP(=O)(OC(C)C)C1=NN(c2ccc([N+](=O)[O-])cc2)C(P(=O)(OC(C)C)OC(C)C)=NN1c1ccc([N+](=O)[O-])cc1 has a TGI of over 100 µM. Work on COc1ccc2c(c1)OCCc1cn[nH]c1-2 yielded a TGI of over 100 µM. CCOC(=O)CCC1(C(=O)OCC)CCCC1=O (stereo not given) was tested, and the TGI was over 100 µM. CN(C)c1ccc(/C=C/C(=O)N[C@@H]2C(=O)N3[C@@H]2SC(C)(C)[C@@H]3C(=O)O)cc1 gave a TGI of over 100 µM. C#CCNC(=O)NCCCCC(NC(=O)OCc1ccccc1)C(=O)OCc1ccccc1 (stereo not given) was tested, and the TGI was over 100 µM. NC(Cc1c[nH]c2cc([N+](=O)[O-])ccc12)C(=O)O (stereo not given) gave a TGI of over 100 µM. C=C/C(C)=C/C[C@]1(C)[C@H](C)[C@@H](OC(=O)CCC)[C@H](O)[C@@]23C(=C[C@H](OC)C[C@@H]12)[C@@H](OC(=O)CCC)O[C@H]3OC(C)=O was tested, and the GI50 was 1.67 µM and the TGI was 3.8 µM. In the case of O=S(=O)(O)c1cccc2cccc(N=Nc3c(O)ccc4ccccc34)c12, the TGI is reported as over 100 µM. Cc1ccc(Sc2ccccc2[N+](=O)[O-])cc1 was tested, and the TGI was over 100 µM.
